In PubChem BioAssay AID904 (National Center for Advancing Translational Sciences (NCATS), 2007):
Hit rate of the full screen: of about 55,000 compounds, about 530 (0.96%) were called active. Inconclusive results, whose numbers are uncertain, are shown with a selection of clear calls. Calls come from the whole dose curve; as a rule, active = well fitted cell-killing curve with a large enough effect; inconclusive = small, poorly fitted or top-dose-only effect; inactive = no such curve, though single readings can be large or run the other way. Potencies beside an inconclusive call are fits to weak or partial responses and may not hold up.

Experiment: qHTS Screen for Compounds that Selectively Target Cancer Cells with p53 Mutations: Cytotoxicity of p53 Null Cells at the Nonpermissive Temperature; note: nearly all actives have a fitted effect of over 50% in size;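 for activity, negative = cell killing: 0% = DMSO only and -100% = full killing by 100 µM tamoxifen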
Conditions: H1299 p53-null (neo) cells, 39C, ATPlite viability, 24 h; series mostly up to 46.1 µM; activity, negative = cell killing: at the top concentration
Description: NIH Chemical Genomics Center [NCGC] NIH Molecular Libraries Screening Centers Network [MLSCN] MLSCN Grant: 1 X01 MH079844-01 Assay Submitter (PI): Dr. SUN, YI, University of Michigan NCGC Assay Overview: Synthetic Lethal Screen for Compounds to Kill Cancer Cells with p53 Mutation. Tumor suppressor gene p53 serves as a major cellular barrier against tumorigenesis. […] The goal of this screening is to identify small molecule probes that selectively kill cancer cells with mutations in p53. This screening was carried out using two lines of H1299 lung cancer cells. The H1299-p53 A138V line express a temperature sensitive p53 mutant (p53ts) in which the mutant p53 protein (A138V) is in the mutant confirmation when grown at 39C (the nonpermissive temperature) and in the wild type conformation when grown at 32C (the permissive temperature). A H1299-neo line (p53 null) grown at both 39C and 32C were used as counter-screens to filter out false positive associated with temperature shifting. The small molecular compounds that selectively target mutant p53-containing cancer cells were selected as candidate probes for further study. A cytotoxicity assay based on the measurement of ATP contents in cells was used in this screen. Concentration-responses of all the compounds in the library collection were determined in qHTS using the cell lines and temperature conditions as above.
NCGC Assay Protocol Summary: Both the H1299-p53A138V and H1299-neo cell lines were provided by Dr.Yi Sun, a PI at the University Michigan. The cells were maintained and cultured at 37C. The resuspended frozen cells were used to plate the cells in the 1536-well assay plates at a density of 600 cells per well in 5 ul medium. The assay plates with the cells were incubated at 37C for 16 to 30 hours before the experiments. The library compounds in DMSO solution were added to the cells in assay plates and incubated 24 hours at 39C (for mutant p53 conformation) or 32C (for normal p53 conformation as control). An ATP_lite assay kit (PerkinElmer) was used to determine the cell viability. Tomaxifen (100uM) was used as the positive control for cell killing. Data were normalized to the controls for basal activity (DMSO only) and 100% killing (100uM tamoxifen). AC50 values were determined from concentration-response data modeled with the standard Hill equation. P53 assay protocol: 1. Reagent; 5 uL H1299-p53A138V or H1299-neo cell cells/well 2. Time; overnight; 37C incubation 3. Compounds; 23 nL; 5.9 nM to 46 uM 4. Controls; 23 nL; Tamoxifen 100 uM 5. Time; 24 hr; 39C incubation 6. Reagent; 3 uL; ATP_Lite reagent 7. Time; 20 min; Room Temperature 8. Detection; Luminescence; Viewlux plate reader Keywords: p53, synthetic lethal, cancer, cell viability, cytotoxicity, H1299 cell line, luminescence, MLSMR, MLSCN, NIH Roadmap, qHTS, NCGC
Potency is the fitted concentration of half-maximal effect; tags give direction and shape of the fitted curve.

| Compound | Potency | activity, negative = cell killing |
| --- | --- | --- |
| O=C(Nc1ccc2c(c1)OCCO2)c1cccn(Cc2ccccc2)c1=O | inconclusive: 8.91 µM [cytotoxic, partial curve, poor fit] | – |
| Cc1nn2c(=O)cc(COC(=O)c3ccccc3NC(=O)c3cccs3)nc2s1 | inconclusive: 0.794 µM [cytotoxic, full curve, poor fit] | – |
| O=C(Nc1ccc(F)c(Cl)c1)N(Cc1ccc2c(c1)OCO2)C1CCN(Cc2ccccc2)CC1 | inconclusive: 25.1 µM [cytotoxic, single point] | – |
| Cc1ccccc1-c1nc(CS(=O)CC(=O)N2CCN(c3cc(Cl)ccc3C)CC2)c(C)o1 (configuration not stated) | inconclusive: 14.1 µM [cytotoxic, single point] | – |
| CCc1ccc(-n2nc(C)c3c2NC(=O)CSC3c2ccccc2C)cc1 (configuration not stated) | inconclusive: 1.78 µM [cytotoxic, full curve] | – |
| COc1cc2[nH]c(=O)n(CCCCCC(=O)N3CCN(c4cccc(C(F)(F)F)c4)CC3)c(=O)c2cc1OC | inconclusive: 12.6 µM [cytotoxic, single point] | – |
| COc1ccccc1CNC(=O)CCC1N=C2c3ccccc3N=C(SCc3cccc(Cl)c3)N2C1=O (configuration not stated) | inconclusive: 0.447 µM [cytotoxic, full curve, poor fit] | – |
| Cc1ccc(Cn2nc(C)c(NC(=O)c3cc(-c4ccc(F)cc4)on3)c2C)cc1 | inconclusive: 5.62 µM [cytotoxic, single point] | – |
| CC(C)Oc1ccc(NC(=O)c2cc3ccccc3o2)cc1 | inconclusive: 2.51 µM [cytotoxic, full curve] | – |
| CCOc1ccc(C(=O)Nc2cccc(C(=O)OCc3cc(=O)n4nc(C5CC5)sc4n3)c2)cc1 | inconclusive: 3.98 µM [cytotoxic, full curve] | – |
| COc1cccc(-n2c(/C=C\c3ccc(Cl)cc3)nc3ccccc3c2=O)c1 | – | inactive: 38.4% |
| COc1c(C)cc(Br)cc1C(=O)Nc1ccc(-c2nc3ncccc3o2)cc1 | inconclusive: 15.8 µM [cytotoxic, single point] | – |
| CCC12CN3CC(CC)(CN(C1)C3c1c(C)[nH]c(=O)[nH]c1=O)C2=O (configuration not stated) | inconclusive: 0.0089 µM [cytotoxic, full curve, poor fit] | – |
| Cc1ccc(CNC(=O)C(=O)NCC(c2cccnc2)N2CCN(c3ccc(F)cc3)CC2)cc1 (configuration not stated) | inconclusive: 0.398 µM [cytotoxic, partial curve] | – |
| Cc1cccn2c(=O)cc(COc3cccc(NC(=O)COc4ccc(F)cc4)c3)nc12 | active: 12.6 µM | – |
| COc1ccc2nc(NC(=O)c3nc(S(=O)(=O)Cc4cccc(C)c4)ncc3Cl)sc2c1 | inconclusive: 31.6 µM [cytotoxic, single point] | – |
| COc1ccc(Br)cc1C1SCC(=O)Nc2c1c(C)nn2-c1ccccc1C (configuration not stated) | inconclusive: 35.5 µM [cytotoxic, single point] | – |
| COc1ccc(S(=O)(=O)NCCc2sc3nc(-c4ccc(C)cc4)nn3c2C)cc1F | inconclusive: 17.8 µM [cytotoxic, partial curve, poor fit] | – |
| CCc1ccccc1NC(=O)C(CC)Oc1ccccc1-c1nnc(-c2ccccc2)o1 (configuration not stated) | – | inactive: 66.7% |

| Compound | Potency | activity, negative = cell killing |
| --- | --- | --- |
| Cc1ccc(-c2nc(S(=O)(=O)c3ccccc3)c(SCC(=O)NC3CCCCC3)o2)cc1 | inconclusive: 35.5 µM [cytotoxic, single point] | – |
| CCCOc1ccc(C(=O)Nc2ccc(-c3cc4ccccc4oc3=O)c(C)c2)cc1 | inconclusive: 0.126 µM [cytotoxic, partial curve, poor fit] | – |
| COc1cccc(C2SCC(=O)Nc3c2c(C)nn3-c2ccc(C)c(Cl)c2)c1OC (configuration not stated) | – | inactive: -8.43% |
| Cc1cccc(OCC(=O)Nc2cc(-c3ccccc3F)nn2-c2ccccc2)c1 | inconclusive: 0.005 µM [cytotoxic, full curve, poor fit] | – |
| Cc1cccc(-n2nc(C)c3c2NC(=O)CSC3c2ccccc2Cl)c1 (configuration not stated) | – | inactive: -0.77% |
| CC(C)(C)c1ccc(C(=O)Nc2ccc3nc(SCC(=O)N4CCCC4)sc3c2)cc1 | inconclusive: 6.31 µM [cytotoxic, partial curve] | – |
| COc1cc(NC(=O)CCn2c(=O)oc3ccccc32)cc(OC)c1OC | inconclusive: 1.58 µM [cytotoxic, partial curve, poor fit] | – |
| COc1ccc2c(c1)c(=O)c(C(=O)c1ccc(Cl)cc1)cn2CC(=O)Nc1ccc2c(c1)OCCO2 | inconclusive: 10 µM [cytotoxic, partial curve] | – |
| CCOC(=O)c1ccc(N2C(=O)c3n[nH]c(-c4cccs4)c3C2c2ccc(Cl)cc2Cl)cc1 (configuration not stated) | active: 17.8 µM | – |
| COc1ccc(CNC(=O)Cn2c(SCC(=O)Nc3ccc(C)c(C)c3)nc3ccccc32)cc1 | inconclusive: 7.94 µM [cytotoxic, partial curve, poor fit] | – |
| COc1cccc(-c2cc(C(=O)Nc3cnn(Cc4ccc(Cl)cc4Cl)c3)no2)c1 | inconclusive: 0.251 µM [cytotoxic, partial curve] | – |
| O=C(Nc1ccc(Br)cc1)c1cccc(S(=O)(=O)N2CCc3ccccc32)c1 | inconclusive: 3.98 µM [cytotoxic, partial curve, poor fit] | – |
| Cc1ccc2oc(=O)c(-c3nc4ccc(C)cc4[nH]3)cc2c1 | active: 20 µM | – |
| Cc1cccc(-n2c(/C=C/c3c[nH]c4ccccc34)nc3ccccc3c2=O)c1 | inconclusive: 0.005 µM [cytotoxic, full curve, poor fit] | – |
| O=C(CN1C(=O)CN=C(c2ccccc2)c2ccccc21)Nc1cccc(C(F)(F)F)c1 | inconclusive: 22.4 µM [cytotoxic, single point] | – |
| COc1ccc(CCN2CCC(CNC(=O)c3cnn(-c4ccc(C)cc4)c3C3CCN(C(=O)OC(C)(C)C)CC3)CC2)cc1 | inconclusive: 20 µM [cytotoxic, single point] | – |
| O=C(NCCc1ccc(Cl)cc1)C(=O)NCC(c1cccs1)S(=O)(=O)c1cccs1 (configuration not stated) | inconclusive: 0.398 µM [cytotoxic, full curve, poor fit] | – |
| Cc1c(CCNS(=O)(=O)c2ccccc2)sc2nc(-c3ccc(Cl)cc3)nn12 | inconclusive: 14.1 µM [cytotoxic, single point] | – |
